# Measured values reported in the RNAGym collection of RNA variant scans (doi:10.1093/nar/gkz1192).
# The source gives no read counts; variants with many changes may rest on few reads.
# B1: CPEB3 Ribozyme (parent)
# chain: UAACAGGGGGCCACAGCAGAAGCGUUCACGUCGCAGCCCCUGUCAGAUUCUGGUGAAUCUGCGAAUUCUGCUGUAUAUCUC
# Variants of: B1
# Assay: self-cleavage, relative activity (ratio to wild type); higher = more cleavage; in vitro, sequencing
# Method in brief: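 Barcoded CPEB3 ribozyme mutants, produced by rounds of error-prone PCR, self-cleaved while being transcribed with T7 RNA polymerase for 5 hours at 37°C and during a subsequent 15 min DNase I step before EDTA was added. Sequencing of template-switched cDNA on Illumina gave cleaved and total reads, and DNA sequencing assigned barcodes to variants. Each variant's relative activity is its cleaved/total read fraction divided by the unmutated ribozyme's fraction, averaged across three batches. A variant needed a minimum of 5 reads.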
row,Variant,self-cleavage
1,CAAAAGGGGGUCACAGCAGAAGCGUUCACGUCGCAGCCCCUGUCAGGUUCUGGUGGAUCUGCGAAUUCUGCUGUAAAUCUC [U1C C4A C11U A47G A56G U76A],0.07
2,CAAAAGGGGACCACAGCAGAGGCGUUCACGUCGCAGCCCCUGUCAGAUUCUGGUGAAUCUGCGAAUUCUGCUGUAUAUCCC [U1C C4A G10A A21G U80C],0.06
3,CAAAAGGGGGCCACAGCAGAAGCGUUCACGUCGCAGCCCCUGUCAGAUUCUGGUGAAUCUGCGAAUUCAGCUGUAUAUCUC [U1C C4A U69A],0.95
4,CAAGAGGGGGCCACAGCAGAGGCGCUCACGUCGCAGCCCCUGUCGGAUUCCGGUGAAUCUGCGAAUUCAGCUGUAUAUCUC [U1C C4G A21G U25C A45G U51C U69A],0.19
5,CAAGAGGGGGCCACAGCAGAAGCGUUCACGUCGCAGCCCCUGUCAGGUUCUGGUGAAUCUGCGAAUUCUGCUGUAUAUCUC [U1C C4G A47G],1.12
6,CAAGAGGGGGCUACAGCAGGAGCGUUCACGUCGCUGCCUCUGCCAGAUUCUGGUGAAUCUGCGAAUUCUGCUGUAUAUCUC [U1C C4G C12U A20G A35U C39U U43C],0.26
7,CAAUAGGGGGCCACGGCAGAAGCGUUCACGUCGCAGCCCAUGUCGGAUUCAGGUGAAUCUGCGAAUUCUGCUGUAUAUCUC [U1C C4U A15G C40A A45G U51A],0.22
8,CAAUAGGGGGCCACGGCAGAAGCGUUCACGCCGCAGCCCCUGUCAGUUCCUGGUGAAUCUGCGAAUUCUGCUGUAUAUCUC [U1C C4U A15G U31C A47U U49C],0.58
9,CAAUAGGGGGCCACAGCAGAAGCGAUCACGUCGCAGCCCCAGUCAGAUUCUGGUGAAUCUGCGAAUUCUGCUGUAUAUCUC [U1C C4U U25A U41A],0.28
10,CAAUAGGGGGCCACAGCAGAAGCGCUCAUGUCGCAGCCCCUGUCAGAUUCUGGUGUAUCUGCGAAUUCUGCUGUAUAUCUC [U1C C4U U25C C29U A56U],0.09
11,CAACAGGGGGACACAGCAGGAGCAUUCACGCCGCAGCCCCUGUCAGAUUCUGGUGAAUCUGCGAAUUCUGCUGUAUAUCUC [U1C C11A A20G G24A U31C],0.05
12,CAACAGGGGGACACAGCAGAAGCGAUCACGUCGCAGCCCCUGUCAGAUUCUGGUGAAUCUGCGAACUCUGCUGUAUAUCUC [U1C C11A U25A U66C],0.19
13,CAACAGGGGGACACAGCAGAAGCGCUCACGUCGCAGCCCCUGUCAGAUUCUGGUGAUUCUGCGAAUUCUGCUGUAUAUCUC [U1C C11A U25C A57U],0.04
14,CAACAGGGGGGCACAGCAGGAGCGUUCACGUCGCAGCCCCUGUCAGAUUCUGGUGAAUCUGCGAAUUCUGCUGUAUAUCUC [U1C C11G A20G],0.49
15,CAACAGGGGGGGACAGCAGAAGCGUUCACGUCGCAGCCCUUGUCAGAUUCUGGUGAAUCUGCGAAUUCUGCUGUAUAUCUC [U1C C11G C12G C40U],0.19
16,CAACAGGGGGGCACAGCAGAAGCGUUCACGUCGCAGCCCGUGUCAGAUUCAGGUGAAUCUGCGAAUUCUGCUGUGUAUCUC [U1C C11G C40G U51A A75G],0.03
17,CAACAGGGGGGCACAGCAGAAGCGUACACGUCGCAGCCCCUGUCAGAUACUGGUGAAUCUGCGAACUCUGCUGAAUAUCAC [U1C C11G U26A U49A U66C U74A U80A],0.04

row,Variant,self-cleavage
1,CAACAGGGGGGCACAGCAGAAGCGUUCACGUCGCAGCCCCUGUCAGAUUCCGGUGAAUCUGCGAAUUCUGCUGUAUAUCUC [U1C C11G U51C],0.63
2,CAACAGGGGGGCACAGCAGAAGCGUUCACGUCGCAGCCCCUGUCAGAUUCUGGUGAAUCUGCGAAUUCAGCCGUAUACCUC [U1C C11G U69A U72C U78C],0.09
3,CAACAGGGGGUCACAGCGGAAGCGUUCGCGUCGCAACCCCAGUCAGAUUCUGGUGAAUCUGCGAAUUCUGCUGUAUAUCUC [U1C C11U A18G A28G G36A U41A],0.04
4,CAACAGGGGGUCACAGCGGAAGCGCUCACGUCGCAGCCCCUGUCACAUUCUGCUGAAUCCGCGAAUUCUGCUGUAUAUCUC [U1C C11U A18G U25C G46C G53C U60C],0.23
5,CAACAGGGGGUCACAGCAGGAGCGUUCACGUCGCAGCCCCUGUCAGGUCCUGGUGGAUCUGCGAUUUCUGCUGUAUAUCUC [U1C C11U A20G A47G U49C A56G A65U],0.11
6,CAACAGGGGGUCACAGCAGAAGCGUUCUCGUCGCAGCCCCUGUCAGAUUCUGGUGAAUCUGCGAAUUCUGCUGUAUAUCUC [U1C C11U A28U],0.3
7,CAACAGGGGGUCACAGCAGAAGCGUUCACGUCGCGGCCCCUGUCAGAUUCUGGUGAAUCUGCGAAUUCUGCUGUAUAUCUC [U1C C11U A35G],1.15
8,CAACAGGGGGUCACAGCAGAAGCGUUCACGUCGCAGCCCCUGUCAGGUUCUGGUGGAUCUGCGAAUUCUGCUGUAUAUCUC [U1C C11U A47G A56G],0.25
9,CAACAGGGGGUCACAGCAGAAGCGUUCACGUCGCAGCCCCUGUCAGGUUCUGGUGGAUCUGCGAAUCCUGCUGUAUAUCUC [U1C C11U A47G A56G U67C],0.12
10,CAACAGGGGGUCACAGCAGAAGCGUUCACGUCGCAGCCCCUGUCAGAUUCUGGUGGAUCUGCGAAUUCUGCUGUAUAUCUC [U1C C11U A56G],0.08
11,CAACAGGGGGUCACAGCAGAAGCGUUCAGGUCGCAGCCCCUGUCAGAUUCUGGUGAAUCUGCGAGUUCUGCUGUAUACCUC [U1C C11U C29G A65G U78C],0.06
12,CAACAGGGGGUCACAGCAGAAGCCUUCACGUCGCAGCCCCUGUCAGAUUCUGGUGAAUCUGCGAAUCCUGCUGUAUAUCUC [U1C C11U G24C U67C],0.06
13,CAACAGGGGGUCACAGCAGAAGCGUUCACGUCGCAGCCCCUGUCAGAUUCUGGUGAAUCUGCGAAUUCUGCUGUAUAUCAC [U1C C11U U80A],0.45
14,CAACAGGGGGCAACAGCUGAGGCGUUCACGUCGCAGCCCCUGUCAGAUUCUGGUGAAUCUGCGAAUACUGCUGUAUAUCUC [U1C C12A A18U A21G U67A],0.07
15,CAACAGGGGGCAAUAGGAGAAGCGUUCACGUCGCAGCCCCUGUCAGAUUCUGGUGAACCAGCGAACUCUGCUGUAUAUCUC [U1C C12A C14U C17G U58C U60A U66C],0.05
16,CAACAGGGGGCUGCAGCAGGAGCGUUCGCGUCGCAGCCCCUGUCAGAUUCUGGUGAAUCUGCGAAUUCUGCUGUAUAUCUC [U1C C12U A13G A20G A28G],0.02
17,CAACAGGGGGCUACAGCUGAAGCGUUCACGUCGCAGCCCCUGUCAGAUUCUGGUGAAUCUGCGAAUUCUGCUGUAUACCUC [U1C C12U A18U U78C],0.41
